From patent US20210047304A1, “Bromodomain Inhibitors” (AbbVie Inc., priority 2016, published 2021)

Molecular target: BRD4 (BDII_E352-M457) (Homo sapiens, UniProt O60885)
Experiment: TR-FRET bromodomain binding assay, BRD4 BDII
Experimental: A time-resolved fluorescence resonance energy transfer (TR-FRET) assay was used to determine the affinities of compounds of the Examples listed in Table 1 for each bromodomain of BRD4. […] An Alexa647-labeled BET-inhibitor was used as the fluorescent probe in the assay.
(§1) Compound dilution series were prepared in DMSO via an approximately 3-fold serial dilution. Compound dilutions were added directly into white, low-volume assay plates (Perkin Elmer Proxiplate 384 Plus #6008280) using a Labcyte Echo in conjunction with Labcyte Access and Thermo Multidrop CombinL robotics. Compounds were then suspended in eight microliters (μL) of assay buffer (20 mM Sodium Phosphate, pH 6.0, 50 mM NaCl, 1 mM Ethylenediaminetetraacetic acid disodium salt dihydrate, 0.01% Triton X-100, 1 mM DL-Dithiothreitol) containing His-tagged bromodomain, Europium-conjugated anti-His antibody (Invitrogen PV5596) and Alexa-647-conjugated probe.
After a one-hour equilibration at room temperature, TR-FRET ratios were determined using an Envision multilabel plate reader (Ex 340, Em 495/520).
TR-FRET data were normalized to the means of 24 no-compound controls (“high”) and 8 controls containing 1 μM un-labeled probe (“low”). Percent inhibition was plotted as a function of compound concentration and the data were fit with the 4 parameter logistic equation to obtain IC50s. Inhibition constants (Ki) were calculated from the IC50s, probe Kd and probe concentration.
Compound dilution series for Compounds A-E were prepared in DMSO via an approximately 3-fold serial dilution from 0.47 mM to 7.8 nM.
as §1, with “Compound” for “Compound dilution series were prepared in DMSO via an approximately 3-fold serial dilution. Compound”
The final concentration of 1× assay mixture contained 2% DMSO, 8 nM His-tagged bromodomain, 1 nM Europium-conjugated anti-His-tag antibody and 100 nM or 30 nM probe (for BDI or BDII, respectively) and compound concentration in the range of 9.19 μM-150 pM.
TR-FRET data were normalized to the means of 24 no-compound controls (“high”) and 8 controls containing 1 μM un-labeled probe (“low”). Percent inhibition was plotted as a function of compound concentration and the data were fit with the 4 parameter logistic equation to obtain IC50s. Inhibition constants (Ki) were calculated from the IC50s, probe Kd and probe concentration. Typical Z′ values were between 0.65 and 0.75. The minimum significant ratio was determined to evaluate assay reproducibility (Eastwood et al., (2006) J Biomol Screen, 11: 253-261). The MSR was determined to be 2.03 for BDI and 1.93 for BDII, and a moving MSR (last six run MSR overtime) for both BDI and BDII was typically <3.

SMILES | pKi
Cc1cc(F)cc(C)c1Oc1ccc(C(C)(C)O)cc1-c1cn(C)c(=O)cc1O[C@H]1CC[C@H](NC(=O)CC(C)(C)CO)CC1 [Example 118, N-[trans-4-({5-[2-(4-fluoro-2,6-dimethylphenoxy)-5-(2-hydroxypropan-2-yl)phenyl]-1-methyl-2-oxo-1,2-dihydropyridin-4-yl}oxy)cyclohexyl]-4-hydroxy-3,3-dimethylbutanamide] | 8.23
COC(=O)N[C@H]1CC[C@H](Oc2cc(=O)n(C)cc2-c2cc(C(C)(C)O)cnc2Oc2c(C)cc(C(C)(C)O)cc2C)CC1 [Example 25, methyl [trans-4-({5′-(2-hydroxypropan-2-yl)-2′-[4-(2-hydroxypropan-2-yl)-2,6-dimethylphenoxy]-1-methyl-6-oxo[1,6-dihydro[3,3′-bipyridine]]-4-yl}oxy)cyclohexyl]carbamate] | 8.58
Cc1cc(F)cc(C)c1Oc1ccc(C(C)(C)O)cc1-c1cn(C)c(=O)cc1O[C@H]1CC[C@H](NNC(=O)OC(C)(C)C)CC1 [Example 106, tert-butyl 2-[trans-4-({5-[2-(4-fluoro-2,6-dimethylphenoxy)-5-(2-hydroxypropan-2-yl)phenyl]-1-methyl-2-oxo-1,2-dihydropyridin-4-yl}oxy)cyclohexyl]hydrazine-1-carboxylate] | 7.15
CCOC(=O)CN(C(=O)C1(C)CC1)[C@H]1CC[C@H](Oc2cc(=O)n(C)cc2-c2cc(C(C)(C)O)ccc2Oc2c(C)cc(F)cc2C)CC1 [Example 66, ethyl N-[trans-4-({5-[2-(4-fluoro-2,6-dimethylphenoxy)-5-(2-hydroxypropan-2-yl)phenyl]-1-methyl-2-oxo-1,2-dihydropyridin-4-yl}oxy)cyclohexyl]-N-(1-methylcyclopropane-1-carbonyl)glycinate] | 8.08
Cc1cc(F)cc(C)c1Oc1ccc(C(C)(C)O)cc1-c1cn(C)c(=O)cc1O[C@H]1CC[C@H](n2ncccc2=O)CC1 [Example 141, 2-[trans-4-({5-[2-(4-fluoro-2,6-dimethylphenoxy)-5-(2-hydroxypropan-2-yl)phenyl]-1-methyl-2-oxo-1,2-dihydropyridin-4-yl}oxy)cyclohexyl]pyridazin-3(2H)-one] | 8.32
Cc1cc(F)cc(C)c1Oc1ccc(C(C)(C)O)cc1-c1cn(C)c(=O)cc1O[C@H]1CC[C@H](N2C(=O)O[C@@H](C)C2=O)CC1 [Example 92, (5S)-3-[trans-4-({5-[2-(4-fluoro-2,6-dimethylphenoxy)-5-(2-hydroxypropan-2-yl)phenyl]-1-methyl-2-oxo-1,2-dihydropyridin-4-yl}oxy)cyclohexyl]-5-methyl-1,3-oxazolidine-2,4-dione] | 8.39
Cc1cc(F)cc(C)c1Oc1ccc(C(C)(C)O)cc1-c1cn(C)c(=O)cc1O[C@H]1CC[C@H](N2CCCNC2=O)CC1 [Example 31, 1-[trans-4-({5-[2-(4-fluoro-2,6-dimethylphenoxy)-5-(2-hydroxypropan-2-yl)phenyl]-1-methyl-2-oxo-1,2-dihydropyridin-4-yl}oxy)cyclohexyl]tetrahydropyrimidin-2(1H)-one] | 8.86
Cc1cc(F)cc(C)c1Oc1ccc(C(C)(C)O)cc1-c1cn(C)c(=O)cc1O[C@H]1CC[C@H](N2C(=O)[C@@H]3CCCN3C2=O)CC1 [Example 91, (7aS)-2-[trans-4-({5-[2-(4-fluoro-2,6-dimethylphenoxy)-5-(2-hydroxypropan-2-yl)phenyl]-1-methyl-2-oxo-1,2-dihydropyridin-4-yl}oxy)cyclohexyl]tetrahydro-1H-pyrrolo[1,2-c]imidazole-1,3(2H)-dione] | 8.76
Cc1cc(F)cc(C)c1Oc1ccc(C(C)(C)O)cc1-c1cn(C)c(=O)cc1O[C@H]1C[C@@H](CNC(=O)OC(C)(C)C)C1 [Example 8, tert-butyl {[cis-3-({5-[2-(4-fluoro-2,6-dimethylphenoxy)-5-(2-hydroxypropan-2-yl)phenyl]-1-methyl-2-oxo-1,2-dihydropyridin-4-yl}oxy)cyclobutyl]methyl}carbamate] | 7.75
Cc1cc(F)cc(C)c1Oc1ccc(C(C)(C)O)cc1-c1cn(C)c(=O)cc1O[C@H]1CC[C@H](NC(=O)C2(C)COC2)CC1 [Example 73, N-[trans-4-({5-[2-(4-fluoro-2,6-dimethylphenoxy)-5-(2-hydroxypropan-2-yl)phenyl]-1-methyl-2-oxo-1,2-dihydropyridin-4-yl}oxy)cyclohexyl]-3-methyloxetane-3-carboxamide] | 8.28
CCOC(=O)CC(=O)N[C@H]1CC[C@H](Oc2cc(=O)n(C)cc2-c2cc(C(C)(C)O)ccc2Oc2c(C)cc(F)cc2C)CC1 [Example 55, ethyl 3-{[trans-4-({5-[2-(4-fluoro-2,6-dimethylphenoxy)-5-(2-hydroxypropan-2-yl)phenyl]-1-methyl-2-oxo-1,2-dihydropyridin-4-yl}oxy)cyclohexyl]amino}-3-oxopropanoate] | 8.56
Cc1cc(F)cc(C)c1Oc1ccc(C(C)(C)O)cc1-c1cn(C)c(=O)cc1O[C@H]1CC[C@H](N2C(=O)C3CC3C2=O)CC1 (relative stereo) [Example 129, 3-[trans-4-({5-[2-(4-fluoro-2,6-dimethylphenoxy)-5-(2-hydroxypropan-2-yl)phenyl]-1-methyl-2-oxo-1,2-dihydropyridin-4-yl}oxy)cyclohexyl]-3-azabicyclo[3.1.0]hexane-2,4-dione] | 8.48
CC(=O)N1CCC(=O)N1[C@H]1CC[C@H](Oc2cc(=O)n(C)cc2-c2cc(C(C)(C)O)ccc2Oc2c(C)cc(F)cc2C)CC1 [Example 112, 4-{[trans-4-(2-acetyl-5-oxopyrazolidin-1-yl)cyclohexyl]oxy}-5-[2-(4-fluoro-2,6-dimethylphenoxy)-5-(2-hydroxypropan-2-yl)phenyl]-1-methylpyridin-2(1H)-one] | 8.15
CNC(=O)N(C)Cc1ccc(Oc2c(C)cccc2C)c(-c2cn(C)c(=O)cc2O[C@H]2CC[C@H](NC(=O)C3(C)CC3)CC2)c1 [Example 113, N-[trans-4-({5-[2-(2,6-dimethylphenoxy)-5-{[methyl(methylcarbamoyl)amino]methyl}phenyl]-1-methyl-2-oxo-1,2-dihydropyridin-4-yl}oxy)cyclohexyl]-1-methylcyclopropane-1-carboxamide] | 7.06
Cc1cc(F)cc(C)c1Oc1ccc(C(C)(C)O)cc1-c1cn(C)c(=O)cc1O[C@H]1CC[C@H](N2CC(C)(C)C2=O)CC1 [Example 30, 4-{[trans-4-(3,3-dimethyl-2-oxoazetidin-1-yl)cyclohexyl]oxy}-5-[2-(4-fluoro-2,6-dimethylphenoxy)-5-(2-hydroxypropan-2-yl)phenyl]-1-methylpyridin-2(1H)-one] | 8.71
Cc1cc(F)cc(C)c1Oc1ccc(C(C)(C)O)cc1-c1cn(C)c(=O)cc1O[C@H]1CC[C@H](N2C(=O)N[C@H](C)C2=O)CC1 [Example 132, (5R)-3-[trans-4-({5-[2-(4-fluoro-2,6-dimethylphenoxy)-5-(2-hydroxypropan-2-yl)phenyl]-1-methyl-2-oxo-1,2-dihydropyridin-4-yl}oxy)cyclohexyl]-5-methylimidazolidine-2,4-dione] | 8.56
C=CC(=O)N[C@H]1CC[C@H](Oc2cc(=O)n(C)cc2-c2cc(C(C)(C)O)ccc2Oc2c(C)cc(F)cc2C)CC1 [Example 28, N-[trans-4-({5-[2-(4-fluoro-2,6-dimethylphenoxy)-5-(2-hydroxypropan-2-yl)phenyl]-1-methyl-2-oxo-1,2-dihydropyridin-4-yl}oxy)cyclohexyl]prop-2-enamide] | 8.77
Cc1cc(F)cc(C)c1Oc1ccc(C(C)(C)O)cc1-c1cn(C)c(=O)cc1O[C@H]1CC[C@H](NS(C)(=O)=O)CC1 [Example 46, N-[trans-4-({5-[2-(4-fluoro-2,6-dimethylphenoxy)-5-(2-hydroxypropan-2-yl)phenyl]-1-methyl-2-oxo-1,2-dihydropyridin-4-yl}oxy)cyclohexyl]methanesulfonamide] | 7.88
CC(=O)N[C@H]1CC[C@H](Oc2cc(=O)n(C)cc2-c2cc(C(C)(C)O)ccc2Oc2c(C)cc(C(C)(C)O)cc2C)CC1 [Example 18, N-{trans-4-[(5-{5-(2-hydroxypropan-2-yl)-2-[4-(2-hydroxypropan-2-yl)-2,6-dimethylphenoxy]phenyl}-1-methyl-2-oxo-1,2-dihydropyridin-4-yl)oxy]cyclohexyl}acetamide] | 9.06

pKi: −log10 of the molar value.
